# Measurements reported in PubChem BioAssay AID485294 (National Center for Advancing Translational Sciences (NCATS), 2010).
# Screen size: about 370,000 compounds; about 150 (0.041%) were called active. Inconclusive results, whose numbers are uncertain, are shown with a selection of clear calls. Calls follow the shape of the dose curve; as a rule, active = well fitted inhibition curve with a large enough effect; inconclusive = small, poorly fitted or top-dose-only effect; inactive = flat fitted curve, though single readings scatter. Potencies of inconclusive entries are left out as doubtful fits.
# Biological target: Beta-lactamase (Escherichia coli (strain K12)) (UniProt P00811)
# UniProt P00811, sequence (P00811 whole entry, looked up): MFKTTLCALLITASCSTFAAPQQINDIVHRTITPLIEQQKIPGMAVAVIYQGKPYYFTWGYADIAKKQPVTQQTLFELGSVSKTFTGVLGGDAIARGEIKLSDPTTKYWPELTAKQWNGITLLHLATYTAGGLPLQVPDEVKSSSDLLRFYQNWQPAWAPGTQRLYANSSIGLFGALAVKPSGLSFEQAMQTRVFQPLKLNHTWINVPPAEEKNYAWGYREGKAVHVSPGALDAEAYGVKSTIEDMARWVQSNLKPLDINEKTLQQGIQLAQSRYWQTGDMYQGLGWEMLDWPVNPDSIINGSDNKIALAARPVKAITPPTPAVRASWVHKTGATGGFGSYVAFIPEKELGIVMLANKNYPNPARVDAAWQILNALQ
# Test: qHTS Inhibitors of AmpC Beta-Lactamase (assay with detergent); also: nearly all actives have a fitted effect of over 25% in size
# Settings: AmpC hydrolysis of nitrocefin, absorbance 480 nm, 0.01% Triton; series mostly up to 114 µM
# How it was run: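 20 mM phosphate pH 7.0 + 0.01% (detergent screen) or 0.0001% Triton X-100; 5.3 nM AmpC reagent; cpd preinc 15 min RT; nitrocefin (800 uM stock) to start; A480 q20 s × 4 min; Activity was normalised to no-enzyme and no-compound control wells.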
# Potency is read from the fitted curve at half-maximal effect; tags tell the direction and shape of the fitted curve.
row,Compound,Potency
1,CCOC(=O)c1sc(=S)n(-c2ccc(OC)cc2)c1N,"inconclusive [inhibitor, single point]"
2,CCOC(=O)N1CCN(C(=O)c2ccc(Cl)c(S(=O)(=O)Nc3ccccc3)c2)CC1,"inconclusive [inhibitor, full curve, poor fit]"
3,Cc1ccc(S(=O)(=O)N2CC=C(C(=O)NCc3ccc(F)cc3)CC2)cc1,"inconclusive [inhibitor, full curve]"
4,CCCCN(C(=O)Cn1nnc2ccccc21)C(C(=O)NCCOC)c1ccc(OC)cc1OC (configuration not stated),"inconclusive [inhibitor, full curve, poor fit]"
5,Cc1ccc2[nH]c(=O)c(C(c3nnnn3CC3CCCO3)N3CCc4ccccc4C3)cc2c1 (configuration not stated),"inconclusive [inhibitor, full curve, poor fit]"
6,C=CCNC(=O)COC(=O)c1ccccc1C(=O)N(C)C1CCCCC1,"inconclusive [inhibitor, partial curve, poor fit]"
7,O=C1CSC(c2ccco2)N1 (configuration not stated),"inconclusive [inhibitor, full curve, poor fit]"
8,O=C(Cc1cccc(F)c1)N1CCCC(CO)(Cc2ccc(F)cc2F)C1 (configuration not stated),"inconclusive [inhibitor, full curve, poor fit]"
9,CCc1ccc(NC(=O)CSc2nc3nccnc3c(=O)n2CCc2c[nH]c3ccccc23)cc1,inactive
10,CCCn1ccnc1SCC(=O)Nc1c(C)n(C)n(-c2ccccc2)c1=O,"inconclusive [inhibitor, full curve, poor fit]"
11,Cc1nnc(NC(=O)CSc2ncc(-c3ccccc3)[nH]2)s1,"inconclusive [inhibitor, partial curve]"
12,CC1CCCN(Cc2c(O)ccc3c(=O)c(-c4nc5ccccc5s4)c(N)oc23)C1 (configuration not stated),"inconclusive [inhibitor, partial curve]"
13,COCCN(Cc1nc2ccccc2c(=O)[nH]1)C(=O)COc1c(C)cc(Cl)cc1C,"inconclusive [inhibitor, full curve, poor fit]"
14,COc1cc(S(=O)(=O)Nc2ccccc2)ccc1N=Cc1c(C)[nH]n(-c2ccc(C)cc2)c1=O,inactive
15,O=C(c1cc(S(=O)(=O)N2CCOCC2)ccc1F)N(CCc1ccccc1)Cc1ccccc1,inactive
16,Cc1cccc(NC(=O)N2CCc3c(sc4c3CCCC4)C2c2ccc(F)cc2)c1 (configuration not stated),inactive
17,CN(C)CCCN(C(=O)c1ccc(S(=O)(=O)N(C)C)cc1)c1nc2ccc(F)cc2s1,"inconclusive [inhibitor, full curve]"
18,O=C(Cc1cccs1)N1CCN(c2ccc([N+](=O)[O-])cc2)CC1,"inconclusive [inhibitor, single point]"
19,Cc1ccc(N2CCN(C(=O)Cc3c(C(=O)O)c(C)cn3C)CC2)c(C)c1,"inconclusive [inhibitor, single point]"
20,CCOc1ccccc1CNC(=O)c1ccc(Sc2ccc(Cl)cc2)c(NC(C)=O)c1,inactive
21,O=c1[nH]nc(SCc2nc3ccccc3s2)n1C1CC1,inactive
22,CC(C)c1ccc(NC(=O)c2csnn2)cc1,"inconclusive [inhibitor, partial curve, poor fit]"
23,O=C(c1ccccc1Cl)N1CCC(c2nc3c(nnn3Cc3ccco3)c(=O)[nH]2)CC1,"inconclusive [inhibitor, single point]"

row,Compound,Potency
1,COc1ccc(Cc2c(O)nc(SCC(=O)NC(C)(C)C)[nH]c2=O)cc1,inactive
2,Cc1cccc(C)c1NC(=O)C1CCCN1C(=O)NCc1ccccc1 (configuration not stated),"inconclusive [inhibitor, full curve, poor fit]"
3,COc1ccc2nc(SCC(=O)c3c(C)[nH]c4ccccc34)nc(C)c2c1,inactive
4,CCC(=O)NC(=S)Nc1ccccc1C(=O)NC1CCCCC1,"inconclusive [inhibitor, single point]"
5,CCOC(=O)c1c(C)[nH]c2cc(Br)c(O)cc12,"inconclusive [inhibitor, partial curve]"
6,Cc1ccc(N2C(=O)CSC23C(=O)N(CC(=O)NC2CCCCC2)c2ccccc23)cc1 (configuration not stated),inactive
7,O=C(Nc1ccc(OC(F)F)c(Cl)c1)c1cccc(OC(F)F)c1,inactive
8,CC(NCc1ccc(OCc2ccc(Cl)cc2)cc1)C(O)c1ccccc1 (configuration not stated),"inconclusive [inhibitor, single point]"
9,O=C(NCc1ccccn1)c1ccc2nc(-c3ccco3)c(-c3ccco3)nc2c1,"inconclusive [inhibitor, single point]"
10,COc1ccc([N+](=O)[O-])cc1NC(=O)Cc1ccc(C)cc1,"inconclusive [inhibitor, full curve]"
11,COc1ccc(-c2noc(CN(C)C(=O)c3ccc4c(c3)OCO4)n2)cc1OC,"inconclusive [inhibitor, full curve]"
12,Cn1c(CCn2ccccc2=O)nc2cc(NC(=O)COc3ccccc3)ccc21,"inconclusive [inhibitor, full curve]"
13,COc1ccccc1CNC(=O)CNC(=O)c1ccc(Br)o1,inactive
14,CCOCCCN(C(=O)CCC(=O)Nc1cc(C)on1)C(C(=O)NC(C)(C)CC)c1cccc(OC)c1OC (configuration not stated),"inconclusive [inhibitor, partial curve, poor fit]"
15,CCCCn1c(N)c(N(CC(C)C)C(=O)CCNC(=O)c2ccc([N+](=O)[O-])cc2)c(=O)[nH]c1=O,inactive
16,CC(C)(/C=N/O)/[N+]([O-])=C/c1ccccc1C(F)(F)F,inactive
17,O=C(OCC(=O)N1CCC(Cc2ccccc2)CC1)c1ccc(CO)cc1,"inconclusive [inhibitor, full curve, poor fit]"
18,CC(=O)NC(=S)Nc1cc(C(F)(F)F)ccc1N1CCOCC1,inactive
19,CN(C)C1(CNC(=O)C2CCN(S(=O)(=O)c3cc(Cl)ccc3Cl)CC2)CCCCC1,inactive
20,Cn1c(=O)[nH]c(=O)c2c1nc(N1CCOCC1)n2CCc1ccccc1,inactive
21,CC(C)OC(=O)CSc1nc(N2CCOCC2)c2c(c1C#N)CC(C)(C)OC2,inactive
22,O=C1C(Cl)=C(N2CCN(Cc3ccccc3)CC2)C(=O)N1c1ccccc1,"inconclusive [inhibitor, partial curve, poor fit]"
23,COc1cc(Cn2c(=O)sc3ccccc32)ccc1OC(C)C,inactive

row,Compound,Potency
1,CCOCc1nnc(NC(=O)CSCc2ccccc2)s1,"inconclusive [inhibitor, full curve, poor fit]"
2,N#Cc1c(NC(=O)c2ccccc2)sc2c1CCCCC2,"inconclusive [inhibitor, single point]"
3,Cc1ccc(NC(=O)Cc2nnc(SCC(=O)Nc3nncs3)n2C)c(C)c1,"inconclusive [inhibitor, full curve, poor fit]"
4,CN1CCN(C(=O)C2CCN(c3ncnc4c3nc3n4CCCCC3)CC2)CC1,"inconclusive [inhibitor, full curve, poor fit]"
5,Cc1ccc(-c2n[nH]c(=S)n2/N=C/c2cc3c(cc2[N+](=O)[O-])OCO3)cc1,"inconclusive [inhibitor, single point]"
6,O=c1c(-c2n[nH]c(=S)n2-c2ccccc2)cccn1Cc1cccc(Cl)c1,"inconclusive [inhibitor, full curve, poor fit]"
7,CCN(CC)Cc1nc2c(c(=O)[nH]1)C1(CCCC1)Cc1ccccc1-2,"inconclusive [inhibitor, full curve]"
8,Oc1ccc(N2CCN(CC(O)c3ccccc3)CC2)cc1 (configuration not stated),"inconclusive [inhibitor, full curve, poor fit]"
9,CCc1nc(SCC(=O)Nc2ccccc2OC)c2c(C)c(C)sc2n1,"inconclusive [inhibitor, full curve, poor fit]"
10,CCN(c1ccccc1)S(=O)(=O)c1ccc(OC)c(NC(=O)COc2ccc(C(C)=O)cc2)c1,"inconclusive [inhibitor, full curve, poor fit]"
11,CC(=O)OCC1CCCC2=C(C)C(=O)CCC21COC(C)=O (configuration not stated),"inconclusive [inhibitor, partial curve]"
12,CCOc1ccc(NC(=O)C2Cc3ccccc3N2C(=O)c2ccccc2)cc1 (configuration not stated),"inconclusive [inhibitor, single point]"
13,CCOc1ccc(-c2c(C)nn3c(C)c(C(=O)Nc4ccccc4C(=O)OC)cnc23)cc1OCC,inactive
14,COc1ccccc1OCC(=O)N1CCCC(Nc2ccc(F)c(F)c2)C1 (configuration not stated),inactive
15,CN(C)S(=O)(=O)NCCNc1ccc(C(F)(F)F)cc1[N+](=O)[O-],inactive
16,CC1(C)CC(=O)C2=C(C1)NC(=O)CC2c1ccccc1F (configuration not stated),"inconclusive [inhibitor, partial curve]"
17,Cn1c(=O)c2c(ncn2CC(O)CO)n(C)c1=O (configuration not stated),"inconclusive [inhibitor, single point]"
18,Cc1cccc2cc(CN(CC3CCCO3)C(=O)c3cccnc3)c3nnnn3c12 (configuration not stated),"inconclusive [inhibitor, full curve]"
19,CN(C)CCCN(C(=O)CCS(=O)(=O)c1ccccc1)c1nc2cc3c(cc2s1)OCO3,inactive
20,O=C(Nc1ccc(NC(=O)C2CC2)cc1)c1cccs1,"inconclusive [inhibitor, full curve, poor fit]"
21,COc1ccc(NS(=O)(=O)c2ccc(C)c(C(=O)N3CCCCCCC3)c2)cc1,"inconclusive [inhibitor, full curve, poor fit]"
